Measured values reported in PubChem BioAssay AID504832 (National Center for Advancing Translational Sciences (NCATS), 2011).
Among all 310,000 compounds or so, about 18,000 (5.8%) were called active. Inconclusive means that the source gave no clear call. Such entries were picked first, then a sample of the others. Calls come from the whole dose curve; as a rule, active = well fitted inhibition curve with a large enough effect; inconclusive = small, poorly fitted or top-dose-only effect, or another doubt; inactive = no such curve, though single readings can be large or run the other way. Potencies of inconclusive entries are left out as doubtful fits.

Experiment: Primary qHTS for delayed death inhibitors of the malarial parasite plastid, 48 hour incubation
Conditions: P. falciparum luciferase growth in erythrocytes; series mostly up to 28.7 µM
Summary of the method: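 Luminescence readout; reporter = integrated firefly luciferase in P. falciparum. RBC culture at 2% hematocrit, 0.1% parasitemia final, 37 C/5% CO2; decreased signal taken as growth inhibition.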
Potency is the fitted concentration of half-maximal effect; tags give direction and shape of the fitted curve.

Structure (SMILES) | Potency
Cn1nc(C(=O)NCc2cccc(Cl)c2)c2c1-c1ccccc1S(=O)(=O)C2 | inconclusive [inhibitor, partial curve, poor fit]
Cc1c(C(=O)NCc2ccccn2)sc2nc(-c3ccc(F)cc3)cn12 | inconclusive [inhibitor, partial curve, poor fit]
C=CCn1c(SCC(=O)NCCC2=CCCCC2)nc2ccc(Cl)cc2c1=O | inconclusive [inhibitor, partial curve, poor fit]
COc1cccc(NC(=O)COc2ccc(S(=O)(=O)NC(C)C)cc2)c1 | inconclusive [inhibitor, single point]
CCN1C(N(C)C)=NC[C@@H]1Cc1ccccc1 | inactive
CC[n+]1c(/C=C(\C)SC)sc2ccccc21 | active: 0.294 µM
Cc1sc(NC(=O)c2ccccc2)c(C(=O)NCCN(C)C)c1C | inactive
CN(C)CCn1c(=O)n(Cc2ccco2)c(=O)c2c3c(sc21)CCCCC3 | inconclusive [inhibitor, single point]
COc1ccc(N2CCN(C(c3cccs3)C(C)NC(=O)C(=O)N3CCOCC3)CC2)cc1 (stereo not drawn) | inconclusive [inhibitor, partial curve]
CCOC(=O)c1cccc(NC(=S)N2CCN(c3ncc4c(=O)c(C(=O)O)cn(CC)c4n3)CC2)c1 | inactive
CC(NC(=O)c1cnc2ccccc2n1)c1ccccc1 (stereo not drawn) | inconclusive [inhibitor, partial curve, poor fit]
C/C(CCC(C)C)=N\NC(=S)NCc1ccccc1 | inconclusive [inhibitor, single point]
O=C(CC1C(=O)NCCN1Cc1c(F)cccc1Cl)NC1CCCCCC1 (stereo not drawn) | inconclusive [inhibitor, single point]
CCSc1ccccc1C(=O)Nc1ccc([N+](=O)[O-])cc1OC | inconclusive [inhibitor, partial curve, poor fit]
N#Cc1c(NC(=O)c2ccccc2Cl)n(Cc2ccccc2)c2nc3ccccc3nc12 | inconclusive [inhibitor, single point]
CCOC(=O)Cn1c(=NC(=O)C2CC2)sc2c(C)cc(C)cc21 | inconclusive [inhibitor, partial curve]
CC(=O)C1C(=O)NC23CCCCC2C1c1ccccc1O3 (stereo not drawn) | inconclusive [inhibitor, single point]
Nc1nonc1C(=O)NCCNC(=O)c1ccc(Cl)c(Cl)c1 | inactive
O=C(Nc1ccncc1)c1cccs1 | inconclusive [inhibitor, partial curve, poor fit]
CC(=O)Nc1ccc(NC(=O)CN(C)S(=O)(=O)c2ccc3ccccc3c2)cc1 | inconclusive [inhibitor, partial curve]
Cc1ccn(S(=O)(=O)c2ccc(C(C)(C)C)cc2)n1 | inconclusive [inhibitor, single point]
CC(C)(CNC(=O)c1ccc(-c2ccccc2Cl)o1)N1CCOCC1 | inactive

Structure (SMILES) | Potency
COc1ccc(C(CNC(=O)c2ccc(NS(=O)(=O)c3ccccc3)cc2)N2CCOCC2)cc1 (stereo not drawn) | inconclusive [inhibitor, partial curve, poor fit]
Cc1ccc(N(C(C)C(=O)Nc2ccc(S(=O)(=O)N3CCOCC3)cc2)S(C)(=O)=O)cc1C (stereo not drawn) | inconclusive [inhibitor, partial curve, poor fit]
Cc1cccc(-n2c(O)c(/C=C/C=Nc3ccccc3)c(=O)[nH]c2=O)c1 | inactive
Cn1c(N)c(C(=O)COC(=O)c2ccc(Cl)c(S(=O)(=O)N3CCCC3)c2)c(=O)n(C)c1=O | active: 8.28 µM
Cn1nccc1C(=O)NC(=S)Nc1cc(Cl)cc(Cl)c1 | inconclusive [inhibitor, partial curve, poor fit]
Cc1ccc(-c2cc(C(=O)Nc3nccs3)c3ccccc3n2)o1 | inconclusive [inhibitor, partial curve]
O=C(Nc1ccc(CN2CCCCC2)cc1)c1cccc(Br)c1 | inconclusive [inhibitor, single point]
O=C(NC1CCCC1)C(c1ccc(F)cc1)N(C(=O)c1csnn1)C1CCCC1 (stereo not drawn) | inconclusive [inhibitor, partial curve, poor fit]
COc1ccc(C2=NCCn3cccc32)c(OC)c1 | inactive
CCOCCCNc1nc(-c2ccccc2)nc2ccccc12 | inconclusive [inhibitor, single point]
NC(=O)N/N=C(/CCCCCC/C(=N\NC(N)=O)c1ccccc1)c1ccccc1 | inconclusive [inhibitor, partial curve, poor fit]
COc1cc(C(=O)OCC(=O)N2CCCCC2C)ccc1OCc1c(C)noc1C (stereo not drawn) | active: 9.28 µM
CCN(CC(=O)Nc1ccccc1OC)C(=O)Cn1cnc2ccccc2c1=O | inconclusive [inhibitor, single point]
COc1ccc(CNC(=O)OCc2nccnc2C(=O)Nc2ccc(Br)cn2)cc1 | inactive
Fc1ccc(C(c2nnnn2Cc2cccs2)N2CCN(C3CCCCC3)CC2)cc1 (stereo not drawn) | inconclusive [inhibitor, single point]
CC(C)(C)c1ccc(S(=O)(=O)NCCOCC(F)(F)C(F)F)cc1 | inconclusive [inhibitor, single point]
O=C(Nc1cnc2ccccc2c1)c1cccc(-n2cnnn2)c1 | active: 0.117 µM
CC(C)OCCOc1ccc2oc(-c3ccco3)cc(=O)c2c1 | inconclusive [inhibitor, single point]
Cc1nn(Cc2ccccc2)c(Cl)c1/C=C/C(=O)OCC(=O)N(C)C1CCS(=O)(=O)C1 (stereo not drawn) | inactive
COc1ccc(Nc2nnc(SCc3cn4c(C)cccc4n3)s2)cc1 | inconclusive [inhibitor, partial curve]
O=C(N/N=C/c1ccc([N+](=O)[O-])o1)c1ccccc1NS(=O)(=O)c1cccs1 | inconclusive [inhibitor, single point]
